Consider 91 compounds from PubChem BioAssay AID360 (National Center for Advancing Translational Sciences (NCATS), 2006).

In all, about 48,000 compounds went through this assay and about 550 (1.1%) were called active. Another 4% or so got no clear call; they are omitted. No stated cut-off is given here; in the data, active means potency below about 15 µM; inconclusive means mostly about 16 µM to 33 µM; inactive means weaker than that. The list shows a part of the results. Some results are limits rather than exact numbers.
Potency means the concentration at half of the fitted maximal effect.

In this assay the target is Lysosomal acid glucosylceramidase (Homo sapiens) (UniProt P04062). Kind of assay: Glucocerebrosidase.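 Further: the screen sought inhibitors.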 The conditions noted are these: purified enzyme, resorufin glucoside fluorescence (screen aimed at inhibitors), 20 min. In a few lines: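 Wild-type enzyme at 0.2 nM final in 50mM citric acid/KH2PO4, 10mM sodium taurocholate, 0.01% tween-20, pH 5.9, with resorufin beta-D-glucopyranoside at 30 uM final. Compounds titrated, 20 min at RT, red fluorescence read; AC50 from titration.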
Chain of UniProt P04062 (P04062 whole entry, looked up): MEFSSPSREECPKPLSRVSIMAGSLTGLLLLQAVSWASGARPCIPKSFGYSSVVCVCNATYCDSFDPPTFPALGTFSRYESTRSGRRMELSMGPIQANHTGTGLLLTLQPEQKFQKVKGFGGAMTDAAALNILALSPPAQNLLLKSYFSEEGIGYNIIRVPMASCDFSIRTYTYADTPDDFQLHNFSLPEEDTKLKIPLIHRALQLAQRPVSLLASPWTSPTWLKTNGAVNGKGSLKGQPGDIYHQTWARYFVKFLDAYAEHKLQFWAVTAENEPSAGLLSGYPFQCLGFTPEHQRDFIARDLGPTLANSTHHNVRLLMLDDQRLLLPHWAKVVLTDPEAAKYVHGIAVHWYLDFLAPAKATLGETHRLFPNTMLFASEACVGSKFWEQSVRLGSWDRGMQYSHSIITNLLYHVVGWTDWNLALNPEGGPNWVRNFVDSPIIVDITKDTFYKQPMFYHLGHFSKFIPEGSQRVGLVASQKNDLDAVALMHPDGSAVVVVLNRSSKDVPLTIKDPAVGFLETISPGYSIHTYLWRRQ
Turning to `O=C(CSc1ncn[nH]1)Nc1cccc2ccccc12`, the Potency was inactive: > 76.9 µM.
To `O=C(c1ccco1)N1CCN(S(=O)(=O)c2cccc(C(F)(F)F)c2)CC1` belongs inactive: > 76.9 µM; to `O=C(Cn1nnc2ccccc21)NCc1ccccc1`, inactive: > 76.9 µM; to `COc1ccc(OC)c(NC(=O)c2c(NC(=O)c3ccco3)sc3c2CCC3)c1`, inactive: > 76.9 µM.
Regarding `CCOC(=O)CNC(=O)c1ccc2c(c1)OCCO2`, the Potency is inactive: > 76.9 µM.
As for `CSCC[C@H](NC(=O)OC(C)(C)C)c1nnc(SCc2cccc(F)c2)o1`, the Potency is inactive: > 76.9 µM.
As for `Cc1c(F)cccc1NS(=O)(=O)c1ccccc1C#N`, the figure is inactive: > 76.9 µM.
To `CC(C)(C)NC(=O)C(c1ccco1)N(C(=O)c1csnn1)c1ccccc1` (stereo unspecified) belongs inactive: > 76.9 µM; to `Cc1ccc(N2C(=O)[C@@H]3C(c4ccc(F)cc4)=NO[C@@H]3C2=O)cc1`, inactive: > 76.9 µM.
As to `COc1ccc(C2=NOC(C(=O)N3CCCCCC3)C2)cc1OC` (stereo unspecified), the Potency is inactive: > 76.9 µM.
As for `CCC1(CC)C(=O)C(C)(C)C(=O)OC1c1cccs1` (stereo unspecified), the figure is inactive: > 76.9 µM; as for `CCOC(=O)C1CCN(C(=O)Nc2ccc3snnc3c2)CC1`, inactive: > 76.9 µM; as for `O=C(c1ccc(COc2ccc(Cl)cc2)o1)N1CCN(Cc2ccc3c(c2)OCO3)CC1`, inactive: > 76.9 µM.
To `Cc1ccsc1C(=O)OC1CCOC1=O` (stereo unspecified) belongs inactive: > 76.9 µM.
To `CC1CCCCN1CCn1c(=S)[nH]c2ncccc2c1=O` (stereo unspecified) belongs inactive: > 76.9 µM.
For the compound `O=C(COc1ccccc1O)Nc1ccc(Cl)cc1`, the Potency is inactive: > 76.9 µM.
Consider `CCc1ccccc1NC(=O)N[C@@H](C)C(=O)OC`, for which the Potency was inactive: > 76.9 µM.
On to `O=C(Cc1ccc(-n2cccc2)cc1)NCc1cccs1`, for which the Potency was inactive: > 76.9 µM.
To `COc1cccc(C(=O)Nc2ccc(NC(=O)C(C)(C)C)cn2)c1` belongs inactive: > 76.9 µM; to `Cc1cc(SCC(=O)NC(=O)NCc2ccco2)nc2ccccc12`, inactive: > 76.9 µM; to `Cn1c(=O)c2cn(-c3ccc4c(c3)OCCO4)cc2n(C)c1=O`, inactive: > 76.9 µM.
As for `CCN(CC)CCCNC(=O)c1cc(-c2cccc(Cl)c2)on1`, the figure is inactive: > 76.9 µM; as for `CC1=C(C(=O)Nc2ccccn2)C(c2ccc(Br)cc2)n2ncnc2N1` (stereo unspecified), inactive: > 76.9 µM.
For `CCN(CC)S(=O)(=O)c1cccc(-c2nnc(SCC(=O)c3cc(C)n(C4CC4)c3C)o2)c1`, the Potency was inactive: > 76.9 µM.
As for `O=C1CCC(C(=O)OCC(=O)C23CC4CC(CC(C4)C2)C3)N1` (stereo unspecified), the figure is inactive: > 76.9 µM; as for `Cc1ccccc1NC(=O)c1ccccc1`, inactive: > 76.9 µM; as for `COc1ccc(S(=O)(=O)N2CCC(C(N)=O)CC2)c2ccccc12`, inactive: > 76.9 µM.
To `Cc1nn2c(N3CCN(C(=O)c4ccco4)CC3)cc(C(C)(C)C)nc2c1-c1ccccc1` belongs inactive: > 76.9 µM; to `COc1ccc2c(c1)CCc1c(C(=O)Nc3ccc(OC)c(OC)c3)noc1-2`, inactive: > 76.9 µM; to `Oc1cccc(C(=S)N2CCN(Cc3ccccc3)CC2)c1`, inactive: > 76.9 µM.
As for `COc1ccc(CC(NC(C)=O)C(=O)NC2CCN(c3c4c(nc5ncnn35)CCC4)CC2)cc1` (stereo unspecified), the figure is inactive: > 76.9 µM.
For `CC1(C)CC2(CCO1)N1CC3(C)CN2CC(C)(C1)C3O` (stereo unspecified), the Potency is inactive: > 76.9 µM.
Take `O=C1CC(c2ccc(Cl)cc2)n2nc(N3C(=O)CCC3=O)nc2N1` (stereo unspecified): the Potency is inactive: > 76.9 µM.
As for `COc1cc(CC(NC(C)=O)C(=O)NC2CCN(c3nc(C)cc(C)c3C#N)CC2)cc(OC)c1` (stereo unspecified), the figure is inactive: > 76.9 µM.
To `C=CCN1C(=NC(=O)CCCC(=O)O)SC2CS(=O)(=O)CC21` (stereo unspecified) belongs inactive: > 76.9 µM.
To `CCc1ccccc1N(CC)C(=O)CCc1nc(-c2ccc(C)cc2)no1` belongs inactive: > 76.9 µM.
For the compound `Cc1ccc(C(=O)C2CCN(CC(=O)NC3CCCCC3)CC2)cc1`, the Potency was inactive: > 76.9 µM.
On to `O=C(CCNC(=O)c1ccc(Br)o1)NCc1ccc(Cl)cc1`, for which the Potency was inactive: > 76.9 µM.
As to `CCOc1ccc(NC(=O)Cn2nnc(-c3ccccc3F)n2)cc1`, the Potency was inactive: > 76.9 µM.
To `Cc1ccc(CCN2CC(C(=O)NCCCN3CCOCC3)CC2=O)cc1` (stereo unspecified) belongs inactive: > 76.9 µM; to `CCN(C(=O)c1cccc(F)c1)c1ccccc1C`, inactive: > 76.9 µM.
As for `CCOc1ccc(C(=O)Nc2c3c(nn2C(C)(C)C)CSC3)cc1OCC`, the figure is inactive: > 76.9 µM.
Turning to `COc1ccc(N2C(=O)C3C4C=CC(C4)C3C2=O)nn1` (stereo unspecified), the Potency is inactive: > 76.9 µM.
`Cn1cccc1C(=O)NC(=O)CSc1cccc[n+]1[O-]`: the Potency was inactive: > 76.9 µM.
As for `O=C(CN(c1ccc(F)cc1)S(=O)(=O)c1ccccc1)NCc1ccco1`, the figure is inactive: > 76.9 µM; as for `C=CCn1c(COc2cccc3ccc(C)nc23)nnc1SCC(N)=O`, inactive: > 76.9 µM.
`O=S(=O)(c1ccc(Cl)cc1Br)N1CCCCC1`: the Potency was inactive: > 76.9 µM.
Turning to `CC(C)c1[nH]nc2c1C(c1cccnc1)C(C#N)=C(N)O2` (stereo unspecified), the Potency was inactive: > 76.9 µM.
To `O=C(NCCCN1CCOCC1)c1ccc(CS(=O)(=O)Cc2ccc(Cl)cc2)o1` belongs inactive: > 76.9 µM; to `COc1ccc2c(c1)c1nnc(SCC(=O)N3C(C)CCCC3C)nc1n2C` (stereo unspecified), inactive: > 76.9 µM.
To `CNC(=O)C1C2C=CC3(O2)C1C(=O)N(CCOC)C3C(=O)NCc1ccc(OC)cc1` (stereo unspecified) belongs inactive: > 76.9 µM.
To `CC1=C(C(=O)OC(C)C)C(c2ccc(F)cc2)NC(=O)N1` (stereo unspecified) belongs inactive: > 76.9 µM.
Regarding `Clc1ccc(-n2nnnc2Sc2ncnc3sccc23)cc1`, the Potency was inactive: > 76.9 µM.
As to `O=C(CSc1nc2ccccc2o1)c1ccc2c(c1)OCCO2`, the Potency is active: 13.6 µM.
Turning to `Nc1nc(CSCc2ccccc2)nc(N2CCOCC2)n1`, the Potency is inactive: > 76.9 µM.
To `CCOc1ccccc1N1CCN(Cc2ccc(OC)c(OC)c2OC)CC1` belongs inactive: > 76.9 µM; to `CCOC(=O)CSc1nnc(CNC(=O)c2cccs2)n1-c1cccc(C)c1`, inactive: > 76.9 µM; to `CS(=O)(=O)N(CC(=O)NCc1ccc2c(c1)OCO2)Cc1ccccc1`, inactive: > 76.9 µM.
As for `COc1ccc(CCNC(=O)CSc2cc(=O)[nH]c(N)n2)cc1OC`, the figure is inactive: > 76.9 µM; as for `Cn1c(-c2ccc(F)cc2)cnc1NCc1ccccc1`, inactive: > 76.9 µM.
To `CC(C)c1ccc(CNc2ccc(N3CCOCC3)cc2)cc1` belongs inactive: > 76.9 µM; to `Cc1cccc(Nc2nc3c(c(=O)n(C)c(=O)n3C)n2Cc2ccccc2)c1`, inactive: > 76.9 µM.
With `COc1cc(C)c(S(=O)(=O)N2CCCC2)cc1C`, the Potency was inactive: > 76.9 µM.
To `CCOC(=O)c1sc2nc(N3CCOCC3)c3c(c2c1N)CCC3` belongs “inactive”.
Consider `C=CCn1c(=O)c2ccccc2n2c(SCc3nc(N)nc(Nc4ccccc4C)n3)nnc12`, for which the Potency is inactive: > 76.9 µM.
As to `CC(C)OC(=O)CSc1ncnc2c1cnn2-c1ccccc1`, the Potency is inactive: > 76.9 µM.
As for `CCOC(=O)c1ccccc1NC(=O)CSc1nccn1C`, the figure is inactive: > 76.9 µM; as for `Cn1c(=O)cc(OCC(=O)N2CCN(c3cccc(C(F)(F)F)c3)CC2)c2ccccc21`, inactive: > 76.9 µM; as for `CC(C)c1nnc(SCc2ccc(CSc3nnc(C(C)C)n3N)cc2)n1N`, inactive: > 76.9 µM.
For `Cc1c(C(=O)O)[nH]c2c1C(=O)CC(c1ccc(Cl)cc1)C2` (stereo unspecified), the Potency is inactive: > 76.9 µM.
Turning to `O=C(N1CCOCC1)N(CCN1CCOCC1)Cc1cccc(Cl)c1`, the Potency is inactive: > 76.9 µM.
To `CN(C)CCCNc1cc(Cl)c(S(=O)(=O)N2CCCCC2)cc1C(=O)O` belongs inactive: > 76.9 µM; to `CCOC(=O)COn1c(=O)c(-c2cccs2)[n+]([O-])c2ccccc21`, inactive: > 76.9 µM.
To `COc1cccc(C(=O)Nc2c3c(nn2-c2cccc(C)c2C)CS(=O)(=O)C3)c1OC` belongs inactive: > 76.9 µM; to `O=C(CCn1cnc2ccccc2c1=O)Nc1ccc(S(=O)(=O)N2CCCC2)cc1`, inactive: > 76.9 µM; to `COc1ccc(NC(=O)c2cc(-c3ccc(OC)c(OC)c3)on2)cc1OC`, inactive: > 76.9 µM.
To `COc1ccc(NC(=O)CN(C)S(=O)(=O)c2ccc3c(c2)OCCO3)c2ncccc12` belongs inactive: > 76.9 µM; to `O=C(O)CCC(=O)N(Cc1ccco1)c1nc(-c2ccccc2)cs1`, inactive: > 76.9 µM.
As for `CCCCSc1nsc(NC(C)=O)n1`, the Potency was inactive: > 76.9 µM.
As for `O=C(Nc1ccc(Cl)cn1)c1cnn2cccnc12`, the figure is inactive: > 76.9 µM.
Regarding `CCn1c(C)c(C(C)=O)c(N2CCC(C(N)=O)CC2)nc1=S`, the Potency is inactive: > 76.9 µM.
To `CCN(CC)CCCN1C(=O)c2oc3ccccc3c(=O)c2C1c1cccc(OC)c1OC` (stereo unspecified) belongs inactive: > 76.9 µM; to `CCn1nnnc1-c1ccc(OC)c(S(=O)(=O)N2CCCCC2)c1`, inactive: > 76.9 µM.
As for `COc1ccc(C2=NO[C@@H]3C(=O)N(C4CCCCC4)C(=O)[C@H]23)cc1OC`, the figure is inactive: > 76.9 µM; as for `CCn1c(SCC(=O)Nc2cccc(C)n2)nnc1-c1ccco1`, inactive: > 76.9 µM.
With `CCOc1ccc(NC(=O)c2ccccc2O)cc1`, the Potency was inactive: > 76.9 µM.
With `Cc1cc(C(=O)COc2ncnc3sccc23)c(C)n1C`, the Potency was inactive: > 76.9 µM.
In the case of `COc1cc(C(=O)Nc2ccc(S(=O)(=O)Nc3cc(C)on3)cc2)cc(OC)c1OC`, the Potency is inactive: > 76.9 µM.
For the compound `Cc1ccc(O)c(-c2cc(C(F)(F)C(F)F)[nH]n2)c1`, the Potency is inactive: > 76.9 µM.
On to `Cc1ccc(C(=O)N2CCN(S(C)(=O)=O)C2)cc1`, for which the Potency was inactive: > 76.9 µM.
In the case of `Oc1cccc(Nc2ncnc3ccccc23)c1`, the Potency was inactive: > 76.9 µM.
